Data reported in paper PMC4336329 (PLoS ONE, 2015).
About 2,200 (0.71%) of roughly 310,000 compounds showed an effect of 50% or more. Effects have a minus sign here. The list shows a part of the results.

target: human ether-à-go-go-related gene (hERG) potassium channel (human, UniProt Q12809); assay: primary screen, population patch clamp on CHO cells stably expressing hERG
Sequence (Q12809 whole entry, looked up): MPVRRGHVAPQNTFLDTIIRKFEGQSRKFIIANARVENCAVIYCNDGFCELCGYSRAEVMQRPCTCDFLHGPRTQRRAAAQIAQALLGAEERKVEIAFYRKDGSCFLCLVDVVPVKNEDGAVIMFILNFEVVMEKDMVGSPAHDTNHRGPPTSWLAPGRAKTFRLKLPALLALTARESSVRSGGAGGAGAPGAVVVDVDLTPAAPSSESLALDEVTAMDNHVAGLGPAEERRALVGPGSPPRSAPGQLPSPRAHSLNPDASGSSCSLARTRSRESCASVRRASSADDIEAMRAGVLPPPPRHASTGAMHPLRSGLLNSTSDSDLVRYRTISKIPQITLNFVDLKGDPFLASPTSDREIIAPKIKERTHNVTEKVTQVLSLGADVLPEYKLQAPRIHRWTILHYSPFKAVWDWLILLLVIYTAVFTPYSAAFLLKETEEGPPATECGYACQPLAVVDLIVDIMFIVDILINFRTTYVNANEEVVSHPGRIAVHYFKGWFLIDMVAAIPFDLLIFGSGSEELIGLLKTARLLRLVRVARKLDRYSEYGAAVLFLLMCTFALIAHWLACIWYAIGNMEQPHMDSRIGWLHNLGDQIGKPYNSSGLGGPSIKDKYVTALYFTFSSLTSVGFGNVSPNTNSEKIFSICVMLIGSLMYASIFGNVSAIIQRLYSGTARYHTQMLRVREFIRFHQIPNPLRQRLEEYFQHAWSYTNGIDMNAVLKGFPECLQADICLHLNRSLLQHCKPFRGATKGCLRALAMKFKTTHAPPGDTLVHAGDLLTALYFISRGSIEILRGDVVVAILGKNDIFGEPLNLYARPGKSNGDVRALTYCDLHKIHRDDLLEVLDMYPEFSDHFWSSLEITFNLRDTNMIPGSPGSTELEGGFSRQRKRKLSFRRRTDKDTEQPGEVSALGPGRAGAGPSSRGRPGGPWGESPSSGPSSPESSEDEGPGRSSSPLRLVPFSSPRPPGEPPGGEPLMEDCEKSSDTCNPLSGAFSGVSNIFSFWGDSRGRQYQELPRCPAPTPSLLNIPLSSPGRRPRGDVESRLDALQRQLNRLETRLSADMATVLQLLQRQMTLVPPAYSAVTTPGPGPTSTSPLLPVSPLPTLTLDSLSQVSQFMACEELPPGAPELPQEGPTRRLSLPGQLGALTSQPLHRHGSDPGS

Row | Structure (SMILES) | hERG current change (%, negative = inhibition) at 1uM
1 | OCCOCCOc1ccccc1OCCOCCO | 17.7%
2 | COc1ccc(/C=C/C(=O)OCC(=O)c2c[nH]c3ccccc23)cc1 | 11.9%
3 | COc1ccc(C2CC(C(F)(F)F)n3nc(C(=O)O)cc3N2)cc1 (stereo not drawn) | 20%
4 | CCOC(=O)CSCc1c(C#N)c2ccccc2n1C | 5.91%
5 | COc1ccc(OC)c(-c2csc(NC(=O)Cc3ccccc3OC)n2)c1 | 8.32%
6 | O=C1Nc2ccc([N+](=O)[O-])cc2OC1CCN1CCN(Cc2ccccc2)CC1 (stereo not drawn) | 1.52%
7 | CC(C)COCC(O)CCC(=O)NNC(=S)Nc1ccccc1 (stereo not drawn) | 3.87%
8 | COc1ccc2c(c1)CCc1c(C(=O)NCc3cccnc3)noc1-2 | 8.03%
9 | COc1ccc(C(C(=O)NC2CCCCC2)N(Cc2ccco2)C(=O)CNC(=O)c2ccco2)cc1 (stereo not drawn) | 9.67%
10 | COc1ccc(S(=O)(=O)N/N=C/c2ccc(OCCN3CCOCC3)c(OC)c2)cc1 | 9.9%
11 | COc1ccccc1Nc1ccc2nonc2c1[N+](=O)[O-] | 10.6%
12 | CCCOP(=O)(O)c1c([N+](=O)[O-])cc(C(F)(F)F)cc1[N+](=O)[O-].Cc1ccc(N)cc1 | 5.33%
13 | O=C(N/N=C/c1ccc([N+](=O)[O-])s1)c1ccccc1 | 1.52%
14 | CC1(C)CC(=O)C2=C(C1)N(c1ncn[nH]1)C(N)=C(C#N)C2c1ccccc1 (stereo not drawn) | 2.77%
15 | Cc1ccc(C(=O)N/C(=C\c2ccc(Cl)cc2)C(=O)NCC2CCCO2)cc1 (stereo not drawn) | -38.7%
16 | N#Cc1cc2c(nc1SCc1ccccc1)CCCC2 | 11%
17 | O=C1c2ccccc2NC(c2ccccc2Cl)N1N=C1CCCCCC1 (stereo not drawn) | -1.39%
18 | NC(=O)c1ccc(NC(=O)COc2ccc([N+](=O)[O-])cc2Cl)cc1 | 7.77%
19 | COc1ccc(Cl)cc1Nc1nc(C)nc2c1oc1ccccc12.Cl | 23.3%
20 | O=C(Nc1cccc([N+](=O)[O-])c1)N1CCCc2ccccc21 | 13.2%
21 | Cc1cc(C)nc(SCC(=O)N/N=C/c2cccn2-c2ccc(O)cc2)n1 | 7.15%
22 | CN(C)c1cccc(NC(=O)Cc2ccc(F)cc2)c1 | 12.6%
23 | COc1ccc(-c2cc(C(F)(F)F)n3nc(C(=O)NCCCN4CCOCC4)cc3n2)cc1 | 10.7%

Row | Structure (SMILES) | hERG current change (%, negative = inhibition) at 1uM
24 | O=C(/C=C/c1ccco1)NC(=S)N1CCCCC1 | 13.5%
25 | CCCC1c2ccc(C)n2CCN1C(=O)Nc1ccccc1Cl (stereo not drawn) | 14.1%
26 | O=C(Nc1cccc(Cl)c1)c1ccc(NCCCN2CCOCC2)c([N+](=O)[O-])c1 | -8.94%
27 | COc1cc(C(=O)NCCOc2ccccc2C)c(Br)c(OC)c1OC | -1.32%
28 | CCC(C)NCCCCOc1cc(C)cc(C(C)C)c1 (stereo not drawn) | 2.66%
29 | Cc1cccc(NC(=O)CNc2cc(C)ccc2C)c1 | -13.4%
30 | Cc1ccc(NC2=CC(=O)CC(C)(C)C2)cc1C | 11.1%
31 | O=C(NCc1cccnc1)Nc1cccc([N+](=O)[O-])c1 | 8.57%
32 | CC(c1ccon1)N(C)C(=O)CCc1nnc(Cc2ccc(-c3ccccc3)cc2)o1 (stereo not drawn) | 0.227%
33 | CCN1C(=O)[C@H]2[C@@H](c3ccc(C)cc3)N3C(=O)N(c4ccc(C(F)(F)F)cc4)C(=O)[C@@]3(CC(C)C)[C@H]2C1=O | 14.4%
34 | O=C(COC(=O)c1cnccn1)NCc1ccc(Cl)cc1 | 6.35%
35 | C=CCOc1ccc(/C(O)=C2/C(=O)C(=O)N(CCCN3CCOCC3)C2c2ccccc2)cc1 (stereo not drawn) | 15%
36 | CC(C)(C)NC(=S)Nc1cccc(C(F)(F)F)c1 | 14.5%
37 | O=C1NC[C@@H](Cc2cccc3ccccc23)N(CC2(c3ccccc3)CC2)C1=O | 12.5%
38 | COC(=O)c1ccc2ccn(CC(=O)NC(C)C)c2c1 | 8.71%
39 | Cc1ccccc1N1C(=O)C2C3CCC(O3)C2C1=O (stereo not drawn) | 14.2%
40 | Cc1cc(C)n(CCNC(=O)C2CCC(=O)N(Cc3ccc(Cl)cc3)C2)n1 (stereo not drawn) | 13.2%
41 | CC(C)COc1ccc2[nH]c3c(c2c1)CCCC3=O | 11.6%
42 | CCc1cc2c(COC(=O)c3cccc(NS(C)(=O)=O)c3)cc(=O)oc2cc1O | 13.2%
43 | CCCC[C@H]1COCCS(=O)(=O)N1Cc1ccc(Br)cc1 | -4.77%
44 | COc1ccc(CNC2CCCC2)c(OC)c1OC | 10.2%
45 | CCc1ccccc1NC(=O)Cc1cn(C)c2ccccc12 | 6.07%
46 | Cc1ccc(NC(=S)NCCCN2CCOCC2)cc1 | 14.9%

Row | Structure (SMILES) | hERG current change (%, negative = inhibition) at 1uM
47 | COc1ccc(NC(=S)NCc2cccnc2)cc1OC | 0.51%
48 | CC(=O)OCCN1CCN(C(=O)CN2C(=O)NC(c3ccccc3)(c3ccccc3)C2=O)CC1 | 11.1%
49 | Br.COc1cccc(CNCC2CCCO2)c1 (stereo not drawn) | 13.8%
50 | Cc1cc(C)cc(NC(=O)C(=S)NCc2ccccc2)c1 | 14.6%
51 | COc1cccc(C(=O)COC(=O)COc2c(C)cc(C)cc2C)c1 | 9.08%
52 | CC(=O)N1CCN(S(=O)(=O)c2cccc(C(=O)Nc3nc4c(s3)CCCC4)c2)CC1 | -6.41%
53 | O=C(CSc1nnc2ccc(-c3ccncc3)nn12)c1cccs1 | -0.233%
54 | CCN(Cc1ccccc1)C(c1cc2cc(C)cc(C)c2[nH]c1=O)c1nnnn1CCOC (stereo not drawn) | 8.47%
55 | C/C(=N\OCC(=O)N/N=C/c1ccccc1O)c1cccs1 | 12.4%
56 | CC1CCCCN1C(=O)COC(=O)/C=C/c1ccc2ccccc2n1 (stereo not drawn) | 18.9%
57 | O=C(NN=C1CCCCCCCCCCC1)c1ccncc1 | 2.8%
58 | COc1ccc(/C=N/NC(=O)c2cnccn2)c(OC)c1OC | 11.8%
59 | CCOCCCNC(=O)C(c1ccc(Cl)cc1)N1CCC2(CC1)OCCO2 (stereo not drawn) | 10.3%
60 | COc1ccc(NCc2nnc(SCC(=O)c3ccc(OC)cc3)o2)cc1 | 5.43%
61 | O=C(O)CSCC(=O)Nc1cc(C(F)(F)F)ccc1Cl | 12.5%
62 | COc1ccc2nc(-c3ccccc3)nc(C3CCCCC3)c2c1 | 8.12%
63 | N#CCc1ccc(C(=O)c2ccccc2F)s1 | 10.5%
64 | O=C(Cn1cnc2ccccc21)Nc1ccccc1-c1ccccc1 | 9.11%
65 | O=C(c1ccc2c(c1)OCO2)N1CCc2ccccc21 | 11.5%
66 | CCCn1c(C)cc(C(=O)CN2C(=O)c3ccccc3C2=O)c1C | 8.95%
67 | O=C(COc1ccc(Cl)cc1)Nc1nnc(-c2ccco2)o1 | 5.34%
68 | O=C(NCCCO)c1cc2c([nH]c3ccccc32)c(-c2ccc(F)cc2)n1 | -6.71%
69 | Cc1oc(-c2cccs2)nc1CN1CC[C@@](O)(c2ccccc2)[C@H]2CCCC[C@@H]21 | 18.4%

Row | Structure (SMILES) | hERG current change (%, negative = inhibition) at 1uM
70 | O=C(c1ccccn1)N1CCCC(N2CCN(c3ccc(F)cc3)CC2)C1 (stereo not drawn) | 7.92%
71 | CC(=O)NC(=S)Nc1cccc(S(=O)(=O)NC2=NCCC2)c1 | -2.32%
72 | O=C1NCCCN1Cc1ccc(F)cc1 | -6.41%
73 | O=C(O)c1ccc(Cl)c(NCc2cccs2)c1 | 19.9%
74 | COc1cc(NS(=O)(=O)c2ccc(C)cc2)ccc1-n1cnnn1 | 3.49%
75 | OCC[C@@H]1C[C@H](O)[C@@H](O)[C@]2(OCc3ccccc32)O1 | 11.7%
76 | CC1CCN(CCNC(=O)c2ccc(NC(=O)C3CCCO3)cc2)CC1 (stereo not drawn) | 0.659%
77 | CCNc1cc2n(c(=O)n1)CCc1cc(OC)c(OC)cc1-2 | 3.77%
78 | O=C(C(=O)N1CCCc2ccccc21)N1CCCc2ccccc21 | -7.46%
79 | C[C@@H]1CC=C[C@H]2[C@H]1C(=O)N(Cc1ccccc1)[C@H]2c1ccc(F)c(/C=C/c2ccccc2)c1 | 16.7%
80 | O=C(CN1C(=O)c2cccc3cccc1c23)Nc1ccccc1C(=O)NCc1ccco1 | 2.33%
81 | Cc1ccc(/C=N/NC(=O)CNC(=O)c2ccc(S(=O)(=O)N(C)C)cc2)o1 | 16.3%
82 | COc1ccccc1-c1noc2ncnc(Nc3ccc4c(c3)OCO4)c12 | 8.27%
83 | Cc1cccc(OC(C)C(=O)Nc2ccc(S(=O)(=O)N3CCCC3)cc2)c1 (stereo not drawn) | 8.32%
84 | COc1ccc2c(c1)CC(N1CCN(C)CC1)c1cc(OC)ccc1S2.O=C(O)/C=C\C(=O)O (stereo not drawn) | 0.852%
85 | O=S(=O)(c1cccc2nsnc12)N1CCOCC1 | -1.94%
86 | COc1ccc(CC2c3cc(OC)c(OC)cc3CCN2C)cc1OC (stereo not drawn) | 8.7%
87 | CCN(C(=O)COC(=O)CCCN1C(=O)c2cccc3cccc(c23)C1=O)C1CCS(=O)(=O)C1 (stereo not drawn) | 9.01%
88 | Cc1ccc(SCC(=O)N=C2NC(=O)CS2)cc1 | 11.1%
89 | CN(Cc1cccs1)C(=O)COC(=O)CNC(N)=O | 13.1%
90 | CCOC(=O)CC(=O)CSc1nc(C)nc2c1oc1ccccc12 | 24.1%
